PubChem BioAssay (Tox21)
“And” between values parts separate entries of the source, which are not always exact repeats. Identical values can stand only once. The inconclusive results got no clear call from the source; some entries with a clear call stand among them for comparison. For some assays here: Potencies beside an inconclusive call are fits to weak or partial responses and may not hold up. The source made the active and inactive calls. Unless noted, calls follow the shape of the dose curve; as a rule, active = well fitted cell-killing curve with a large enough effect in the repeat runs; inconclusive = weak or mixed curves, or effect the other way; inactive = no such curve, though single readings can be large or run the other way.

Target: Peroxisome proliferator-activated receptor delta (Homo sapiens) (UniProt Q03181)
Sequence of UniProt Q03181 (Q03181 whole entry, looked up): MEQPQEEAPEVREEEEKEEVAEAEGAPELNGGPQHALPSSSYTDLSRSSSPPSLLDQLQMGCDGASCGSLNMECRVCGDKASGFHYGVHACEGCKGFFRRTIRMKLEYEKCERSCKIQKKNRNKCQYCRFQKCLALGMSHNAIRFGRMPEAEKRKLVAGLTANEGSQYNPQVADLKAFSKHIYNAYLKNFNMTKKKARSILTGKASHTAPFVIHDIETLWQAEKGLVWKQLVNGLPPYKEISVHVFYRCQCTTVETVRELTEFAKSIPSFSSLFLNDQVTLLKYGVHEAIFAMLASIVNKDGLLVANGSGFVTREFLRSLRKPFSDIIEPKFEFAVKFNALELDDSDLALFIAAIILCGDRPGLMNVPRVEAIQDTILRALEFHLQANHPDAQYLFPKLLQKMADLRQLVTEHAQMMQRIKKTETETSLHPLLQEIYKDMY
Test: qHTS assay to identify small molecule antagonists of the peroxisome proliferator-activated receptor delta (PPARd) signaling pathway (AID 743215; active = well fitted inhibition curve with a large enough effect in the signal ratio in the repeat runs, not every such curve was filed as active; inconclusive = weak or mixed curves, or effect the other way; inactive = no such curve, though single readings can be large or run the other way; the % refers to the signal ratio;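 also: cells stimulated with agonist L165041 at 300 nM final during compound exposure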)
Settings: HEK293H PPARd-UAS-bla, beta-lactamase FRET ratio, antagonist, 17 h; ratio activity, negative = inhibition: at 62 µM (top of the series) unless noted
Procedure, shortened: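 Plated HEK293H PPARd-bla cells rested 5 h at 37 C and 5% CO2. Compound, then agonist L165041 at 300 nM final, was added; 17 h at 37 C followed. Substrate loading, 2 h room temperature, fluorescence measured.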
% is scaled to controls: 0 for no effect and ±100 for the full control effect; tags tell the direction and shape of the fitted curve or compound fluorescence and quenching.

Structure (SMILES)	ratio activity, negative = inhibition
CC1=CC(C)(C)Nc2ccccc21	inconclusive: -18.7%
COc1ccc(S(=O)(=O)Nc2nnc(CC(C)C)s2)cc1	inconclusive: -21.8%
CC(C)(C)[C@@H](O)[C@@H](Cc1ccc(Cl)cc1)n1cncn1	inconclusive: -18.7%
C(/C=C/C=C/Nc1ccccc1)=Nc1ccccc1	inactive: 15.4%
CCN(CC)CCOC(=O)C(c1ccccc1)C1CCCCC1 (stereo not given)	inactive: -25.1%
C/C=C/C(=O)CC	inactive: 2.27% [at 13.7 µM]

System: not listed separately
Test: qHTS assay to identify small molecule agonists of the farnesoid-X-receptor (FXR) signaling pathway - cell viability counter screen (AID 743218); also: nearly all actives have a fitted effect of over 45% in size; also: potency is read from the fitted curve at half-maximal effect
Settings: FXR-bla HEK293T viability, CellTiter-Glo luminescence, 16 h; viability change, negative = cytotoxic: at 62.6 µM (top of the series) unless noted
Procedure, shortened: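 Viability of FXR-bla HEK 293T cells is measured by ATP-based CellTiter-Glo luminescence following 16 h compound treatment at 37 C and a prior 2 h room-temperature beta-lactamase substrate step.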

Structure (SMILES)	Potency
COc1ccc(S(=O)(=O)Nc2nnc(CC(C)C)s2)cc1	inconclusive: 29.8 µM [rising, single point]
COc1ccc2c(c1)c(CC(=O)O)c(C)n2C(=O)c1ccc(Cl)cc1	inactive
Cc1ccccc1C(OCCN(C)C)c1ccccc1 (stereo not given)	inconclusive: 21.9 µM [cytotoxic, full curve] and inconclusive: 37.6 µM [cytotoxic, partial curve, poor fit]

Target: Vitamin D3 receptor (Homo sapiens) (UniProt P11473)
Sequence of UniProt P11473 (P11473 whole entry, looked up): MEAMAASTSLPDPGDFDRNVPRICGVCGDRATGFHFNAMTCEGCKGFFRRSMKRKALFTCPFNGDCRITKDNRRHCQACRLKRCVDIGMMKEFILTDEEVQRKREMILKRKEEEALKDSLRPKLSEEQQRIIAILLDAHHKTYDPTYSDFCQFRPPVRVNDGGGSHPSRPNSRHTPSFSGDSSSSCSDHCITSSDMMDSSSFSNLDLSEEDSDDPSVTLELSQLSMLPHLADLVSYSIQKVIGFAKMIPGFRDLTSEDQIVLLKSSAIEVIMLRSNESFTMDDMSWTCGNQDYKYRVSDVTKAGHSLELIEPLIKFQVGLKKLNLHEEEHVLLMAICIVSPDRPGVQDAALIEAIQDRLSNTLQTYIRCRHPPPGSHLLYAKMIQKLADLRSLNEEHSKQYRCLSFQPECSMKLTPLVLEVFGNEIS
Test: qHTS assay to identify small molecule antagonists of the vitamin D receptor (VDR) signaling pathway (AID 743223; active = well fitted inhibition curve with a large enough effect in the signal ratio in the repeat runs, not every such curve was filed as active; inconclusive = weak or mixed curves, or effect the other way; inactive = no such curve, though single readings can be large or run the other way; the % refers to the signal ratio; also: potency is read from the fitted curve at half-maximal effect)
Settings: VDR-UAS-bla HEK293T, beta-lactamase FRET ratio, 16 h; activity change, negative = inhibition: at 61 µM (top of the series) unless noted
Procedure, shortened: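 Inhibition of agonist-driven VDR signalling is scored in VDR-bla cells: 3 nM final 1alpha,25-dihydroxyvitamin D3 plus compound, 16 h at 37C, then beta-lactamase detection by FRET substrate fluorescence after 2 h.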

Structure (SMILES)	activity change, negative = inhibition	Potency
C[N+]1(CC2COC(c3ccccc3)(C3CCCCC3)O2)CCCCC1 (stereo not given)	inconclusive: 6.79%	
CC1=CC(C)(C)Nc2ccccc21	inconclusive: 8.2%	inconclusive: 58.5 µM [activator, single point]
ClC(Cl)Cl	inactive: 19.2%	
COc1ccc2c(c1)c(CC(=O)O)c(C)n2C(=O)c1ccc(Cl)cc1	inconclusive: -1.53% [at 78.8 µM]	inconclusive: 1.1 µM [activator, full curve] and inconclusive: 12 µM [fluorescent, partial curve]
CN(C)C(=O)NC1(c2ccccc2)CCN(CCC[C@]2(c3ccc(Cl)c(Cl)c3)CCCN(C(=O)c3ccccc3)C2)CC1		inconclusive: 9.28 µM [rising, partial curve, poor fit]
C[C@@H]1C[C@H]2[C@@H]3CCC4=CC(=O)C=C[C@]4(C)[C@@]3(F)[C@@H](O)C[C@]2(C)[C@H]1C(=O)CO	inactive: 5.89%	

System: not listed separately
Test: qHTS assay to identify small molecule agonists of the vitamin D receptor (VDR) signaling pathway - cell viability counter screen (AID 743224); also: nearly all actives have a fitted effect of over 50% in size; also: potency is read from the fitted curve at half-maximal effect
Settings: VDR-bla HEK293T viability, CellTiter-Glo luminescence, 16 h; activity change, negative = cytotoxicity: at 62.6 µM (top of the series)
Procedure, shortened: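 Compounds were pin-transferred onto VDR-bla cells plated 4 h earlier; following 16 h incubation at 37C, cell viability was quantified by CellTiter-Glo luminescence after 30 min at room temperature.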

Structure (SMILES)	Potency	activity change, negative = cytotoxicity
CC1=CC(C)(C)Nc2ccccc21	inconclusive: 60.1 µM [cytotoxic, partial curve, poor fit]	
CN(C)C(=O)NC1(c2ccccc2)CCN(CCC[C@]2(c3ccc(Cl)c(Cl)c3)CCCN(C(=O)c3ccccc3)C2)CC1		inactive: -21.3% [at 29.1 µM]
OCc1ccccn1	inconclusive: 29.8 µM [rising, partial curve, poor fit]	
